# Laboratory results published in paper PMC4336329 (PLoS ONE, 2015).
# In all, about 310,000 compounds went through this assay and about 2,200 (0.71%) showed an effect of 50% or more. The effect is printed as a negative number. This is one part of the list.
# Target: human ether-à-go-go-related gene (hERG) potassium channel (human, UniProt Q12809)
# Test: primary screen, population patch clamp on CHO cells stably expressing hERG
# Sequence of human ether-à-go-go-related gene (hERG) potassium channel (Q12809 whole entry, looked up): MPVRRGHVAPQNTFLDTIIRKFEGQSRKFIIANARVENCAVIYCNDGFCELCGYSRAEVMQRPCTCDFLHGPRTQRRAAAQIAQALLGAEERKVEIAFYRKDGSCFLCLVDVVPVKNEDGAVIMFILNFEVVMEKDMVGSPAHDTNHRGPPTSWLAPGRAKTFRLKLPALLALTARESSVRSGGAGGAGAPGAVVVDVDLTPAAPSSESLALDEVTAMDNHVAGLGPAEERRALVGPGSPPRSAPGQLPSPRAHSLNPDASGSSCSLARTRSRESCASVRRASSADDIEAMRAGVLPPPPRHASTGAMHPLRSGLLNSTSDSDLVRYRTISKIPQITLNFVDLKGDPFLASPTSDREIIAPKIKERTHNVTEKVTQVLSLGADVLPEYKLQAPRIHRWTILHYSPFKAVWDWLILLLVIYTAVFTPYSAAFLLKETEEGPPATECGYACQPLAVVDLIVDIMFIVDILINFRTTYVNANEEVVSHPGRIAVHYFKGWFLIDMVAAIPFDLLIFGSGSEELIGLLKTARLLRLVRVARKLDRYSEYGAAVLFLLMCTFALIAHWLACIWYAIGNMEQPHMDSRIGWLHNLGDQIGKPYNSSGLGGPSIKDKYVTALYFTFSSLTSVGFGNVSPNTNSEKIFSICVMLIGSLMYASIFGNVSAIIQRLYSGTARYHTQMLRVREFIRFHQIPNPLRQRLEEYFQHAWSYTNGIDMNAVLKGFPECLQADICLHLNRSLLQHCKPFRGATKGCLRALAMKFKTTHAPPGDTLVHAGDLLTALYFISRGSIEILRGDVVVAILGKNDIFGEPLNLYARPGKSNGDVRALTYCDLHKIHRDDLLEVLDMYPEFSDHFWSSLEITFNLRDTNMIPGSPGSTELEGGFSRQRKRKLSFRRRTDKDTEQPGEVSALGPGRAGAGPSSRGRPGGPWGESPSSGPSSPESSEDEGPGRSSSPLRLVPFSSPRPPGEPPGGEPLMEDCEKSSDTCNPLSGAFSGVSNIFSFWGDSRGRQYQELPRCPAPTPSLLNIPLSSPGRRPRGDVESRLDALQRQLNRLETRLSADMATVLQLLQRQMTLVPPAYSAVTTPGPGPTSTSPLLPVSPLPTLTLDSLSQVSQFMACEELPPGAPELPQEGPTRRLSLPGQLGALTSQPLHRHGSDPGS
row,SMILES,"hERG current change (%, negative = inhibition) at 1uM"
1,Cc1ccc(NC(=O)CSc2nc(C)c(Cc3ccccc3)c(=O)[nH]2)cc1,13.7%
2,COc1ccc(-c2noc(CCCC(=O)N3CCOCC3)n2)cc1,17.6%
3,C=CCNC(=S)Nc1sc2c(c1C(=O)OCC)CC(C(C)C)OC2 (stereo not drawn),-2.94%
4,COc1ccc(N2CCN(c3ncnc4scc(-c5ccc(C)cc5)c34)CC2)cc1,13.2%
5,CCc1ccccc1NC(=O)NNS(=O)(=O)c1cc(C)ccc1C,10.3%
6,O=S(=O)(Nc1ccc2c(c1)oc1ccccc12)N1CCCC1,14.2%
7,O=C1[C@@H]2Cc3c([nH]c4ccccc34)C(c3cccc([N+](=O)[O-])c3)N2C(=O)CN1C1CCN(Cc2ccccc2)CC1 (stereo partly drawn),5.28%
8,Cc1ccccc1C(=O)Nc1sc2c(c1C(=O)O)CCC2,13.9%
9,CC(C)C(=O)NNc1ccccc1,7.01%
10,CC1CCN(Cc2c(C(=O)N/N=C/c3cc(Br)ccc3O)nnn2-c2nonc2N)CC1,14.4%
11,CC(OC(=O)c1ccco1)C(=O)Nc1ccc(C(F)(F)F)cc1 (stereo not drawn),5.12%
12,N#Cc1cccc(NC(=O)Cc2ccsc2)c1,16.5%
13,CN(C)c1cccc2c(C=C(C#N)C#N)ccc(N(C)C)c12,-6.83%
14,COc1ccc(NC(=O)Cn2c(=O)n(CC3CCCO3)c(=O)c3ccccc32)c(OC)c1 (stereo not drawn),10.3%
15,O=C(Cn1nc(Cc2cccnc2)c2ccccc2c1=O)NCc1ccc(F)cc1,-13.2%
16,Oc1ccc(N2CCN(C(c3ccncc3)c3nnnn3C3CCCC3)CC2)cc1 (stereo not drawn),1.94%
17,Cc1ccc2sc(NC(=O)CN3C(=O)c4ccccc4C3=O)nc2c1C,8.06%
18,Nc1ccc(C#Cc2ccccc2)cc1,-3.21%
19,Cc1sc2ncn(CC(=O)N3CCC(C(N)=O)CC3)c(=O)c2c1S(=O)(=O)N1CC(C)CC(C)C1 (stereo not drawn),19.2%

row,SMILES,"hERG current change (%, negative = inhibition) at 1uM"
1,Cc1ccc(NC2CCCN(C(=O)CN3C(=O)c4ccccc4C3=O)C2)cc1C (stereo not drawn),16%
2,O=C(c1ccccc1)c1ccccc1,13.6%
3,Cc1cc(OCC(=O)OCC(=O)NC2CCCCC2C)ccc1Cl (stereo not drawn),5.07%
4,COc1ccccc1C(=O)N1CCN(Cc2nc(CC3CC3)no2)CC1,13.8%
5,O=C1CCCC2=C1C(c1cccs1)CC(=O)N2c1ccc(F)cc1 (stereo not drawn),-1%
6,COC(=O)c1ccc(CNC(=O)CSC2=NCCS2)cc1,10.3%
7,N#CC1=C(N)Oc2cc(Nc3ccccc3)ccc2C1c1ccncc1 (stereo not drawn),5.45%
8,COc1ccc(S(=O)(=O)N2CCCC2c2cccs2)cc1 (stereo not drawn),17.6%
9,COc1ccccc1C(CNC(=O)CNC(=O)c1ccc(Cl)c(Cl)c1)N1CCCC1 (stereo not drawn),8.3%
10,COc1cc(OC)cc(C(=O)NCCCNC(=O)c2cccnc2)c1,13.6%
11,COc1ccc(S(=O)(=O)Nc2ccc(F)cc2F)cc1C(=O)N1CCOCC1,9.98%
12,CCOC(=O)c1sc(NC(=O)CSc2nc(C)cc(C)c2C#N)c(C#N)c1C,7.95%
13,O=C(COC(=O)c1ccc([N+](=O)[O-])s1)Nc1ccc(Cl)cn1,6.28%
14,Cc1ccc2nc(-c3ccccc3)cc(C(=O)NCCCn3ccnc3)c2c1,-0.904%
15,COc1ccccc1-n1c(SCC(=O)O)nc2sc3c(c2c1=O)CCC3,14.5%
16,COc1cc(/C=N/OCC(=O)Nc2cc(C)on2)ccc1OCc1ccccc1,32.3%
17,Cc1ccc(Oc2nc(-c3ccccc3)ncc2S(C)(=O)=O)cc1,19.7%
18,CC1CCN(c2ccc([N+](=O)[O-])cc2C(N)=O)CC1,6.34%
19,COc1ccc(S(=O)(=O)Nc2ccccn2)cc1C(=O)Nc1ccccc1,-4.15%

row,SMILES,"hERG current change (%, negative = inhibition) at 1uM"
1,C=CCc1c(C)nc(SC)nc1Nc1ccc(C(C)=O)cc1,4.27%
2,CCN1CCN(C(=O)CN(CC)S(=O)(=O)c2ccc(F)cc2)CC1,15.2%
3,CC(=O)N(Cc1cc(=O)[nH]c2ccccc12)c1ccc(C)cc1,-2.33%
4,CCn1nnnc1SCC(=O)N1c2ccccc2CCc2ccccc21,7.72%
5,CCOc1cc(C(=O)Nc2ccc([N+](=O)[O-])cn2)cc(OCC)c1OCC,0.649%
6,O=S(=O)(CCN1CCSCC1)c1ccc(Cl)cc1,12.1%
7,O=C(CNC(=O)c1ccncc1)N/N=C/c1cc(Br)ccc1OCc1ccccc1,8.38%
8,CCS(=O)(=O)c1ccc2c(c1)N(S(C)(=O)=O)CC(C(=O)NN)O2 (stereo not drawn),24%
9,COc1cccc(C(=O)NC(=S)N2c3ccccc3CC2C)c1OC (stereo not drawn),13.3%
10,COc1ccc(C=Nc2cccc3ncccc23)cc1,11.2%
11,O=C(COC(=O)c1ccccc1Nc1cccc(C(F)(F)F)c1)NCc1ccco1,7.43%
12,CCOC(=O)c1c(N)sc2c1C1CCN2CC1.Cl,2.69%
13,COc1ccc(C(=O)N2CCCC(CCC(=O)NCc3ccc(F)c(F)c3)C2)o1 (stereo not drawn),9.6%
14,O=C1/C(=C\c2cccc(O)c2)SC(=S)N1Cc1ccccc1,12.1%
15,CC1(C)Cc2ccccc2-c2nnc(-c3ccccn3)n21,-4.71%
16,O=C(CN(C1CCCCC1)S(=O)(=O)c1ccccc1)NCc1ccco1,5.45%
17,CCn1c(=O)c(C(=O)CN2CCN(S(=O)(=O)c3ccccc3)CC2)c(N)n(Cc2ccccc2)c1=O,12%
18,N#Cc1ccc(CN2CCN(CC(=O)Nc3ccccc3C(=O)NC3CC3)CC2)cc1,-87.4%
19,O=C(CCCN1C(=O)c2ccccc2C1=O)OC1CSCC1NC(=O)c1ccccc1 (stereo not drawn),-1.58%
